In all, about 4,500 sequences were measured (“median log2 fold change of GCK-ALFA target abundance (FLAG IP / Myc IP barcode read proportion)”: median about 0.078, lowest 2% from about -0.6 on). The list shows a part of the results.
B1: GBRAP_160_4811 (protein)
chain: MEKAEKLLEEAEEDLLETAEAAADLPVADLARLLEAEGYTDILEFEEELNISDETEDKLAAVVDELVARLLANPDLSREERLALVREAAEKMREIVLEEV
B2: GBRAP_64_6480 (protein)
chain: SEEIEKAWDELLDAVTRLLEAFERELPELAPRAQAILDKVKEAKTLSLEEKLDKVLEVADELVALFNDPRVSEELKDLIAEALDKAFALAALLAEAEEEE
B3: GBRAP_11_2926 (protein)
chain: KKEEILKIAELADKLAKAVEKLIEEGVDNEELRKEAEKLLKELTELVKKYGDEADKKDAEIMKELWEKAKEDPENAEEYLEELRNEARVLSGQYLLKAEE
B4: GBRAP_95_7052 (protein)
chain: EDDRLALESTVDVLETYLDLGDEEAARRAAREAVRLLKELGYDAVPDDISLETAKLLLRVAAETESPEDVEALLAALVAKADTEEEKRELRRVAEEALAA
B5: GBRAP_160_4225 (protein)
chain: SEVVEKLVKVFEEEMLEALELIEGESPEEQKVVLDVAAGNIILEAMEIEEATEEMEEVVDEKAEEAREELLEARDASREEQKKLIEEKVKELREELKKLA
B6: GBRAP_125_3016 (protein)
chain: SAEELAAAMALIARALGYSEADVEELAELTLAHGVKGTLIAIALAEGEEEIAELLEQLTEEEVAAVVLEAAAELRAHPDLTPEEVLALLRELAKRALAAS
B7: GBRAP_11_2728 (protein)
chain: KKEKLKELAEEAEKLAKEIAKLIKEGPTEEKLKELAKKAKELAKKAKEIGADKSIVDLLEIAAENLKEAIKDKSNTLEYLKNALAAARTAAGQLLLELEE
B8: GBRAP_11_2613 (protein)
chain: KKEILKEMAELAEEAARVLAELLRVGVDDEELRARARELLERLAELTKKYGDEADKTDVEVALELLEKMEADPERAEEYARQLLAALRVLAGNYLLDIEE
B9: GBRAP_160_4155 (protein)
chain: SEELKKLIKEIKELADEAIKMMEGETPEQAKTIARVTLGDILLLVEENPAVSEEAEDKIGAIADATEATLKANPDLTVEEVKALVKEARDKVVAILEEEA
B10: GBRAP_78_6660 (protein)
chain: KIEELLDKALKLARELRKLAKGLSPEIQNQAAEVEVLVGEALYLYEVEKASKEELIEELKEALEQAKKLLEQLKGVDEEAQKAAEKLIEALKKAIKELEK
B11: GBRAP_95_7020 (protein)
chain: EDDQLAADSLAEVLETYVELGEEEKARRAAEELVRVIAEDPSVRFPPDLSPEAARIVAEAARETLSREEAAAVLRRGAADAADPEVRAIFLEALAEVEAE
B12: GBRAP_52_5963 (protein)
chain: MEARMEALLDELLALRRAGDEAGAEALAREIAETLDDEELRLLGDVLVARIRASDLETAELLLDLAIMLADVLEELGRDPRLASDLLGRAAAAAYALEQA
B13: GBRAP_83_6904 (protein)
chain: ESVVAVNITPENGAARAAEAVDIVVEEGWSLEILVGTDPEEVAAVEDLFAALNASGKKVRVEVAVVGRDEAAVRAAAARIRAAAAAQPNVELERLDEVVL
B14: GBRAP_160_4290 (protein)
chain: KEEAERLKKEIEEIAEEAIEMMKGETREERVAIVRVAGGEVAMELIENENISDETVDRVLEIWDAVAETIAANPDLTDEEIEELIEKAREEAIKIVEEES
B15: GBRAP_160_4245 (protein)
chain: SEELEKIRRDIREEAEVALEALAEVPPSQWGAVLRAMAGNIVQIVIENPSMTDEMVEKVDELAEEMVERLLAARDASPEELRRLLEEGVERIIEEIEKML
B16: GBRAP_184_5027 (protein)
chain: TVLEAEIEAKDLAELEAKLAALAAEVKGSGADLVVSLKLENPTEEMVRTALAGLGAIKAAGNVSRVTVGFEGELSEELEEVALAAGDENGVNVVLPISDE
B17: GBRAP_160_4219 (protein)
chain: METIERIVEIFRENFLEALELIEGESEEERKVILDVAVGEIILEVDSDENVTDEMEEVVDEKARELAEELLKLKNASEEEKRALIEEKAEELREELEKLA
B18: GBRAP_186_5394 (protein)
chain: EEDEEEEDKLIEELEKENDIVIIVYLDSSKSLEEKKKIMDNDAEAMAALAKETGKKVALVFRVVDDEENLKELKEHVEKLNKEYKAKSGVTVKLIGFKKE
B19: GBRAP_35_5521 (protein)
chain: SSDTTTVEMLVATIEDLTLAVPDMPVEDATKIANSLIKDAEELAEDVKNNVEGLKKLRDALKALRDALEKHYGDNPLAQETIAKIDKLIAKIDELIAKAK
B20: GBRAP_96_7088 (protein)
chain: ELEEVKKLVKKLLEALNTDPELARKYAKELLKYPPELIAKALKELGVSDEEAVELFRILYEEDPSRAADLIDALTEIVSSEAVVKMVEIAIELEKRREEE
B21: GBRAP_26_5424 (protein)
chain: ISEAFDEAIERISAAAKELLDPETAAALRAVVTDEILEAEEKIEEENLSEEEVEKLLEEVLKEIEEALKELGVPEEKRKKLVEVAREELEKVLKKIKEER
B22: GBRAP_11_2773 (protein)
chain: KAEELKKLAELAEKLAELAQKLIEEGPDNEELIKKAEETLKEAEELAKKYGSEAMKKDVKLMKELFKKALEDPENAEQYLQELENQARVLAGQALLEAEE
B23: GBRAP_11_2882 (protein)
chain: SKEKLKELAELAEELARTLAALLEEGVDNAELRARAEELLRRLRELTKKYADEAEQKLVEILEEEWRRALADPETAAQHWQEALAVARVLEGQYLLKLEE
B24: GBRAP_11_2844 (protein)
chain: KKEELEKLREEAEELAEETAALIASGNPSKEQLEELLKRVKELLERVKKHASEASKKLAEIALEDVEKAIADPATQQQHLNEALAALRVLAGQLLLEIEE
B25: GBRAP_160_4443 (protein)
chain: SEELEKLKEEIKEILEEALEMMKGQNLAERLAILRVAQGEIILVAEESSIMSDEDIEKIDEIMEELIATIEANPDLTDEELEALIEEALEKIFEIIEEAE
B26: GBRAP_80_6792 (protein)
chain: AEAELAAHLAEIAALDPEIAARVAAIVARARALGVPAETLAEFARAIAELLKVDKEEAREIVEELEEELREEEERGDTANAEATLRVHAGEALLEVEELE
B27: GBRAP_11_2871 (protein)
chain: KKEKLEELAKLARELAKLIDELLKEGVDNEKLRAEIEKKLEELTELVKKHADKASQKLAEIAKELWKKAKADPEKAEEYYKELLATVRVLEGQFLLDIEE
B28: GBRAP_128_3595 (protein)
chain: SVEEVRAWTRAQLAAMKTADAATRRAIADEIMARFLTLSLEEREALVETIEELAPELTAEDLEILADAARAARPQADPEGANLLADLEVELLNEALEKEE
B29: GBRAP_11_2880 (protein)
chain: KKEALKKIAELAREIAKLIDKLLKEGVDNEELLKEIKEKVEELKKLVEEEADESLKKLAEIAAELLKKALADPANREKYLKELRATVEVLEGQALLEYEE

target: GABARAP, O95166; test: median log2 fold change of GCK-ALFA target abundance (FLAG IP / Myc IP barcode read proportion) (log2 ratio); each designed protein is fused to an ALFA-tag nanobody in HEK293 cells to bring the named protein to FLAG-tagged glucokinase (GCK); Myc marks an untargeted standard; higher = target protein stabilised (more abundant); settings: target protein: 3xFLAG-MCP-GCK-ALFA reporter; HEK293 landing pad (RPLP)
Sequence (O95166 whole entry, the tested form may be a part): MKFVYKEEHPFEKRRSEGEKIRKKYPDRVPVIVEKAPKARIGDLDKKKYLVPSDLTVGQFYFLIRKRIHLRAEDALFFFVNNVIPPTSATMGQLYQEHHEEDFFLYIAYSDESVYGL
Summary of the method: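 Binders fused to an ALFA nanobody were recombined as a library into HEK293 landing-pad cells, which were induced with 2 μg mL^−1 doxycycline and then transfected to express a FLAG-tagged target and a Myc-tagged standard. After 48 h, circular RNA barcodes recovered by anti-FLAG and anti-Myc immunoprecipitation of lysates were reverse transcribed, amplified and sequenced. Each binder's target abundance is the median log2 ratio of FLAG to Myc barcode read proportions, from barcodes present at ≥10^−7 in both replicates, binders carrying ≥3 barcodes per replicate, a 10^−6 pseudocount and pooled replicates.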

Binder | median log2 fold change
B1 | -0.492
B2 | -0.25
B3 | -0.0151
B4 | 0.13
B5 | -0.48
B6 | -0.274
B7 | 0.0933
B8 | 0.247
B9 | -0.546
B10 | 0.268
B11 | 0.146
B12 | -0.635
B13 | -0.0179
B14 | -0.258
B15 | 0.179
B16 | 0.231
B17 | -0.349
B18 | -0.016
B19 | 0.173
B20 | 0.114
B21 | 0.205
B22 | 0.347
B23 | 0.059
B24 | 0.249
B25 | -0.246
B26 | -0.0698
B27 | 0.361
B28 | -0.0227
B29 | 0.0572
